Test results as given in PubChem BioAssay AID588855 (National Center for Advancing Translational Sciences (NCATS), 2011).
Several values for one entry are separate records, joined by “and”; a condition that tells them apart may be missing. Equal entries are not always repeated. Screen size: about 410,000 compounds; about 5,000 (1.2%) were called active. Inconclusive means that the source gave no clear call. Such entries were picked first, then a sample of the others. The call rests on the fitted dose curve; in most records, active means well fitted inhibition curve with a large enough effect; inconclusive means small, poorly fitted or top-dose-only effect; inactive means no such curve, though single readings can be large or run the other way. Potencies of inconclusive entries are doubtful fits and often do not repeat.
Potency means the concentration at half of the fitted maximal effect; tags describe the fitted curve by direction and shape.

Assay: qHTS for Inhibitors of TGF-b; further: nearly all actives have a fitted effect of over 65% in size
Conditions: HepG2 CAGA-GFP TGF-b/SMAD3 reporter, GFP fluorescence, 18 h, TGF-beta stimulated, 500 pg/mL final; series mostly up to 46.1 µM
How it was run: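 Cell-based qHTS in HEPG2 carrying a CAGA-GFP Smad reporter; compounds added before 500 pg/mL final TGF-beta, 18 h incubation at 37 degrees C, GFP fluorescence quantified per cell by imaging cytometry.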
With `COc1ccc(N2CCN(c3ncccn3)CC2)cc1` the Potency was inconclusive: 12.6 µM [inhibitor, single point].
In the case of `COc1cccc(OC)c1C(=O)NCCc1csc(-c2ccc(Cl)cc2)n1`, the Potency is reported as inconclusive: 17.8 µM [inhibitor, partial curve, poor fit].
With `CC(=O)n1cc([C@@H]2C=C(C(=O)O)O[C@H](OCc3ccc(CO)cc3)C2)c2ccccc21` the Potency was “inactive”.
For `Cc1csc(=O)n1CC(=O)OC(C)C(=O)Nc1cccc(Cl)c1` (stereo not given), the Potency was “inactive”.
For `COc1cc2c(cc1OC)C(C)N(C(=O)c1cc3n(n1)C(C(F)(F)F)CC(c1ccco1)N3)CC2` (stereo not given), the Potency was inconclusive: 35.5 µM [inhibitor, single point].
For `CCc1ccc(NC(=O)c2sc3nc4n(c(=O)c3c2C)CCC4)cc1`, the Potency was inconclusive: 35.5 µM [inhibitor, single point].
For `COc1ccccc1N1CCN(CCN(C(=O)C2CCCCC2)c2ccccn2)CC1`, the Potency was “inactive”.
For `CCCCc1nnc(NC(=O)c2oc3ccccc3c2C)s1`, the Potency was “inactive”.
In the case of `Cn1nnnc1SCCNCc1cc(Br)ccc1OCc1ccccc1Cl`, the Potency is reported as inconclusive: 12.6 µM [inhibitor, single point].
For `O=C(C1CCN(S(=O)(=O)c2cccc3nsnc23)CC1)N1CCn2c1nc1ccccc12`, the Potency was “inactive”.
In the case of `OC(COc1ccccc1)CN1CCCC1` (stereo not given), the Potency is reported as inconclusive: 0.112 µM [inhibitor, full curve, poor fit].
In the case of `O=C(c1ccc2c(c1)N(Cc1cccc(F)c1)C(=O)c1ccccc1S2)N1CCCC1`, the Potency is reported as inconclusive: 35.5 µM [inhibitor, single point].
With `Cc1cccc2c1-c1sc(C(=O)N(C)c3cccc(Cl)c3)cc1CO2` the Potency was inconclusive: 28.2 µM [inhibitor, single point].
For `CCN=c1scc(-c2ccco2)n1/N=C/c1ccc(OC)c(O)c1`, the Potency was “inactive”.
In the case of `Cc1cc2oc(=O)cc(CN(Cc3ccccc3)Cc3ccccc3)c2cc1Cl`, the Potency is reported as inconclusive: 25.1 µM [inhibitor, partial curve, poor fit].
With `Cc1ccc([C@H]2C[C@H](O)[C@@H](n3cc(C4CC4)nn3)CN2Cc2cccs2)cc1` the Potency was inconclusive: 35.5 µM [inhibitor, single point].
In the case of `CCN(CC)CCn1c(=S)[nH]c2ccc(Cl)cc2c1=O`, the Potency is reported as inconclusive: 3.16 µM [inhibitor, partial curve, poor fit].
For `Oc1ccc(C2C(c3ccccc3)=NN=C(c3ccc(Cl)cc3)N2O)c(O)c1` (stereo not given), the Potency was inconclusive: 35.5 µM [inhibitor, single point].
For `O=C1OC[C@@H]2CCCN2C(=O)[C@H](CC(=O)N(CCO)Cc2ccccc2)C/C=C\CC[C@@H]1Cc1ccc(F)cc1`, the Potency was inconclusive: 12.6 µM [inhibitor, partial curve, poor fit].
With `CC(C)c1ccc(NS(=O)(=O)c2ccc3c(c2)NC(=O)CO3)cc1` the Potency was inconclusive: 22.4 µM [inhibitor, single point].
With `CCCCc1ccc(C2C3=C(CC(C)(C)CC3=O)NC3=C2C(=O)c2ccccc23)cc1` (stereo not given) the Potency was inconclusive: 1.12 µM [inhibitor, full curve].
With `O=C(CCSCc1ccccc1Cl)NCc1ccc(F)cc1Cl` the Potency was inconclusive: 15.8 µM [inhibitor, partial curve, poor fit].
With `O=C(CSc1nnc(COc2ccccc2)o1)Nc1nccs1` the Potency was inconclusive: 35.5 µM [inhibitor, single point].
In the case of `COc1ccccc1/C=C1\SC(=S)N(CCC(=O)Nc2cccc(O)c2)C1=O`, the Potency is reported as inconclusive: 35.5 µM [inhibitor, single point].
In the case of `Cc1cccc(CCNC(=O)c2cc3c(=O)n(C)c4ccccc4c3n2C)c1`, the Potency is reported as “inactive”.
With `O=C(CN1C(=O)CCn2nc(-c3ccccc3)cc21)NCc1ccc(Cl)cc1` the Potency was inconclusive: 20 µM [inhibitor, single point].
For `C[C@@H](C(=O)NCCc1c[nH]c2ccccc12)[C@H]1C[C@]1(C)[C@H](NC(=O)OCc1ccccc1)c1ccccc1`, the Potency was inconclusive: 35.5 µM [inhibitor, single point].
For `Cc1nnnn1/C(=C\c1ccccc1)C(=O)OCC(=O)Nc1cccc(S(=O)(=O)N(C)C)c1`, the Potency was inconclusive: 20 µM [inhibitor, single point].
For `CC(C)c1ccc(COc2ccc(C(=O)N3CCOCC3)cc2)cc1`, the Potency was “inactive”.
In the case of `O=C(OCC(=O)N1CCCc2ccccc21)c1cccc(S(=O)(=O)N2CCc3ccccc32)c1`, the Potency is reported as “inactive”.
For `O=c1c(NCc2cccs2)nccn1-c1ccc(F)cc1`, the Potency was “inactive”.
In the case of `CN1C(=O)Cc2cc(S(=O)(=O)N3CCOCC3)ccc21`, the Potency is reported as inconclusive: 35.5 µM [inhibitor, single point].
For `Cc1cc(NCc2ccccc2)nc(-c2ccccc2O)n1`, the Potency was inconclusive: 12.6 µM [inhibitor, partial curve, poor fit].
With `O=S(=O)(NCc1nc2cccnc2n1Cc1ccccc1Cl)c1ccc2c(c1)CCCC2` the Potency was inconclusive: 35.5 µM [inhibitor, single point].
In the case of `Cc1cccc(-n2ncc3c2CCCC3NC(=O)C2=CC(=O)CC(C)(C)O2)c1C` (stereo not given), the Potency is reported as “inactive”.
With `CCOc1ccc(NS(=O)(=O)c2ccc3[nH]c4c(c3c2)CCCCC4)cc1` the Potency was inconclusive: 17.8 µM [inhibitor, single point].
In the case of `CC(C)c1cc(C(=O)OCC(=O)N2CCN(C(=O)c3ccco3)CC2)c(O)c(C(C)C)c1`, the Potency is reported as inconclusive: 35.5 µM [inhibitor, single point].
With `Cc1nc(C/C(=N\Nc2ccccc2)c2ccc(O)cc2O)cs1` the Potency was inconclusive: 35.5 µM [inhibitor, single point].
For `CCOC(=O)N1CCN(C(=O)c2c[nH]c3ccc(S(=O)(=O)N(C)c4cccc(C)c4)cc3c2=O)CC1`, the Potency was “inactive”.
With `C=CCOc1ccc(/C=C(\C#N)C(=O)Nc2ccccn2)cc1` the Potency was “inactive”.
With `O[C@H]1C[C@H](c2ccc(Cl)cc2)N(CC2CCCCC2)C[C@@H]1n1cc(C2CC2)nn1` the Potency was inconclusive: 17.8 µM [inhibitor, single point].
In the case of `CCOC(=O)CSc1nc2ccc(NC(=O)c3cccc(F)c3)cc2s1`, the Potency is reported as inconclusive: 22.4 µM [inhibitor, partial curve, poor fit].
For `Cc1ccccc1Nc1nc(N)nc(COC(=O)c2cccc(S(=O)(=O)NCc3ccccc3)c2)n1`, the Potency was inconclusive: 6.31 µM [inhibitor, single point].
In the case of `CCc1nccn1CCC(=O)N1CCCC(Nc2ccc(C(C)C)cc2)C1` (stereo not given), the Potency is reported as “inactive”.
With `O=C(COc1ccc(Cl)cc1)N1CCN(S(=O)(=O)c2cc(F)ccc2F)CC1` the Potency was inconclusive: 12.6 µM [inhibitor, single point].
For `CCCCCCCCN1[C@@H](CC(C)=O)c2cc(C(F)(F)F)ccc2S1(=O)=O`, the Potency was inconclusive: 35.5 µM [inhibitor, single point] and inconclusive: 11.2 µM [inhibitor, single point].
In the case of `CCOC(=O)c1c(/N=C/C2=C(O)CCCC2=O)sc(C)c1C`, the Potency is reported as inconclusive: 3.98 µM [inhibitor, single point].
For `COc1cccc(NC(=O)Cn2cc(C(=O)c3ccc(C)cc3)c(=O)c3cc(OC)ccc32)c1`, the Potency was inconclusive: 20 µM [inhibitor, partial curve, poor fit].
With `Cc1ccccc1NC(=O)Cn1c(=O)n(Cc2ccc3c(c2)OCO3)c(=O)c2ccccc21` the Potency was “inactive”.
In the case of `COc1ccc(OC)c(CCNC(=O)CS(=O)(=O)Cc2nc(-c3ccccc3C)oc2C)c1`, the Potency is reported as inconclusive: 35.5 µM [inhibitor, single point].
With `CN1CCN(Cc2cc(COCc3ccccc3)c3cccnc3c2O)CC1` the Potency was active: 4.47 µM.
For `Cc1c(Cl)cccc1NC(=O)CCS(=O)(=O)c1ccc2c(c1)CC(=O)N2C`, the Potency was inconclusive: 11.2 µM [inhibitor, single point].
For `COc1cccc(CC2(CO)CCCN(Cc3c(C)cc(C)cc3-n3cccn3)C2)c1` (stereo not given), the Potency was inconclusive: 35.5 µM [inhibitor, single point].
In the case of `O=C(CC(=O)c1ccccc1)Nc1cc(C(F)(F)F)ccc1Cl`, the Potency is reported as inconclusive: 35.5 µM [inhibitor, single point].
With `CCOc1ccccc1C(=O)N[C@H](C(=O)OCc1cc([N+](=O)[O-])cc2c1OCOC2)C(C)C` the Potency was inconclusive: 10 µM [inhibitor, partial curve].
In the case of `O=C(CCc1ccccc1)NC(NC(=S)Nc1cccc(Cl)c1)C(Cl)(Cl)Cl` (stereo not given), the Potency is reported as inconclusive: 0.562 µM [inhibitor, full curve, poor fit].
With `O=C(COc1ccccc1)NNC(=S)NC(=O)c1ccccc1` the Potency was “inactive”.
In the case of `COc1ccccc1C(=O)Nc1ccnn1C1CCN(Cc2ncc[nH]2)CC1`, the Potency is reported as “inactive”.
For `Cc1ccc(CNC(=O)COC(=O)CCCOc2ccc(Cl)cc2Cl)cc1`, the Potency was inconclusive: 35.5 µM [inhibitor, single point].
With `COc1ccccc1C1OC(c2cccc([N+](=O)[O-])c2)=NN1C(C)=O` (stereo not given) the Potency was inconclusive: 3.98 µM [inhibitor, partial curve, poor fit].
In the case of `O=C(Nc1ncc(Cc2ccccc2)s1)C1CCCO1` (stereo not given), the Potency is reported as “inactive”.
For `COc1ccc(-c2nc3cc(NC(=O)CSc4ccc(C)cc4)ccc3o2)cc1`, the Potency was inconclusive: 2.51 µM [inhibitor, partial curve].
With `Brc1cnc(OCc2ccccc2)nc1OCc1ccccc1` the Potency was “inactive”.
For `COc1cc2c(cc1OC)CN(CCC(C)c1ccc(Cl)cc1)CC2` (stereo not given), the Potency was inconclusive: 20 µM [inhibitor, single point].
For `CC(C)C(c1nnnn1Cc1ccccc1)N1CCC(C(N)=O)CC1` (stereo not given), the Potency was inconclusive: 6.31 µM [inhibitor, single point].
